Results: patent publication EP0745599A2, “1-(3-Heterocyclylphenyl)-s-triazine-2,4,6-oxo or thiotrione herbicidal agents” (American Cyanamid Company, priority 1995, dated 1996)
The name of at least one read-out is uncertain.

Legend:
Assay type in all cases: in vivo
Conditions in all cases: rated four to five weeks after treatment
CASSIA OBTUSIFOLIA, L. [1] = assay: Postemergence herbicidal evaluation, CASOB (Sicklepod)
Experimental: (§1) In the tests, seedling plants are grown in jiffy flats for about two weeks. The test compounds are dispersed in 50/50 acetone/water mixtures containing 0.5% TWEEN®20, a polyoxyethylene sorbitan monolaurate surfactant of Atlas Chemical Industries, in sufficient quantities to provide the equivalent of about 0.125 kg to 0.500 kg per hectare of active compound when applied to the plants through a spray nozzle operating at 40 psi for a predetermined time. After spraying, the plants are placed on greenhouse benches and are cared for in the usual manner, commensurate with conventional greenhouse practices. From four to five weeks after treatment, the seedling plants are examined and rated according to the rating system set forth below. Where more than one test is involved for a given compound, the data are averaged.
(§2) Results of herbicide evaluation are expressed on a rating scale (0-9). The scale is based upon a visual observation of plant stand, vigor, malformation, size, chlorosis and overall plant appearance as compared with a control.

[2] = test system: SETARIA VIRIDIS, (L) BEAU; assay: Preemergence herbicidal evaluation, SETVI (Foxtail, Green)
Excerpt: as §2
(§3) The preemergence herbicidal activity of the test compounds of the present invention is exemplified by the following tests in which the seeds of a variety of monocotyledonous and dicotyledonous plants are separately mixed with potting soil and planted on top of approximately one inch of soil in separate pint cups. After planting, the cups are sprayed with the selected aqueous acetone solution containing test compound in sufficient quantity to provide the equivalent of about 0.125 to 0.50 kg per hectare of test compound per cup. The treated cups are then placed on greenhouse benches, watered and cared for in accordance with conventional greenhouse procedures. From four to five weeks after treatment, the tests are terminated and each cup is examined and rated according to the rating system provided in Example 42.

[3] = test system: ORYZA SATIVA, L. TEBONNET; assay: Postemergence herbicidal evaluation, ORYSAT (Rice, Tebonnet)
In short: (§4)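 Compound is dispersed in 50/50 acetone/water containing 0.5% TWEEN®20 and sprayed at 40 psi onto seedlings about two weeks old, delivering about 0.125–0.500 kg/ha. Injury is scored 0–9 four to five weeks later.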

CHENOPODIUM ALBUM, L. [4] = assay: Preemergence herbicidal evaluation, CHEAL (Lambsquarters, Common)
Excerpt: as §2, §3

[5] = test system: ECHINOCHLOA CRUS-GALLI, (L) BEAU; assay: Preemergence herbicidal evaluation, ECHCG (Barnyardgrass)
Excerpt: as §2, §3

CHENOPODIUM ALBUM, L. [6] = assay: Postemergence herbicidal evaluation, CHEAL (Lambsquarters, Common)
In short: as §4

[7] = test system: ABUTILON THEOPHRASTI, MEDIC.; assay: Postemergence herbicidal evaluation, ABUTH (Velvetleaf)
In short: as §4

[8] = test system: TRITICUM AESTIVUM, CV. APOLLO; assay: Postemergence herbicidal evaluation, TRZAWO (Wheat, Winter, CV. APOLLO)
In short: as §4

CASSIA OBTUSIFOLIA, L. [9] = assay: Preemergence herbicidal evaluation, CASOB (Sicklepod)
Excerpt: as §2, §3

[10] = test system: GLYCINE MAX(L)MERR. CV. WILLIAMS; assay: Postemergence herbicidal evaluation, GLXMAW (Soybean, Williams)
In short: as §4

GALIUM APARINE [11] = assay: Preemergence herbicidal evaluation, GALAP (Galium)
Excerpt: as §2, §3

GALIUM APARINE [12] = assay: Postemergence herbicidal evaluation, GALAP (Galium)
ZEA MAYS L. = assay: Postemergence herbicidal evaluation, ZEAMX (Corn, Field)
In short: as §4

IPOMOEA SPP. = assay: Postemergence herbicidal evaluation, IPOSS (Morningglory Spp.)
[13] = test system: AMBROSIA ARTEMISIIFOLIA, L.; assay: Postemergence herbicidal evaluation, AMBEL (Ragweed, Common)
In short: as §4

[14] = test system: ABUTILON THEOPHRASTI, MEDIC.; assay: Preemergence herbicidal evaluation, ABUTH (Velvetleaf)
Excerpt: as §2, §3

[15] = test system: SETARIA VIRIDIS, (L) BEAU; assay: Postemergence herbicidal evaluation, SETVI (Foxtail, Green)
Experimental: as §1, §2

Cn1c(=O)n(CC(=O)O)c(=O)n(-c2cc(N3C(=O)C4=C(CCCC4)C3=O)c(F)cc2Cl)c1=O [Compound 3, 3-[2-Chloro-5-(1-cyclohexene-1,2-dicarbox-imido)-4-fluorophenyl]tetrahydro-5-methyl-2,4,6-trioxo-s-triazine-1(2H)-acetic acid]
6.0: Herbicide rating (0-9) CASOB (CASSIA OBTUSIFOLIA, L. [9]; 0.500 kg/ha)
4.0: Herbicide rating (0-9) SETVI ([2]; 0.500 kg/ha) | Herbicide rating (0-9) ORYSAT ([3]; 0.250 kg/ha) | Herbicide rating (0-9) ORYSAT ([3]; 0.500 kg/ha) | Herbicide rating (0-9) TRZAWO ([8]; 0.125 kg/ha) | Herbicide rating (0-9) CASOB (CASSIA OBTUSIFOLIA, L. [9]; 0.250 kg/ha) | Herbicide rating (0-9) GLXMAW ([10]; 0.500 kg/ha) | Herbicide rating (0-9) ZEAMX (ZEA MAYS L.; 0.125 kg/ha) | Herbicide rating (0-9) IPOSS (IPOMOEA SPP.; 0.250 kg/ha)
0.0: Herbicide rating (0-9) SETVI ([2]; 0.125 kg/ha) | Herbicide rating (0-9) SETVI ([2]; 0.250 kg/ha) | Herbicide rating (0-9) CHEAL (CHENOPODIUM ALBUM, L. [4]; 0.125 kg/ha) | Herbicide rating (0-9) CHEAL (CHENOPODIUM ALBUM, L. [4]; 0.250 kg/ha) | Herbicide rating (0-9) ECHCG ([5]; 0.125 kg/ha) | Herbicide rating (0-9) ECHCG ([5]; 0.250 kg/ha) | Herbicide rating (0-9) CHEAL (CHENOPODIUM ALBUM, L. [6]; 0.125 kg/ha) | Herbicide rating (0-9) ABUTH ([7]; 0.250 kg/ha) | Herbicide rating (0-9) GALAP (GALIUM APARINE [11]; 0.125 kg/ha) | Herbicide rating (0-9) GALAP (GALIUM APARINE [11]; 0.250 kg/ha) | Herbicide rating (0-9) GALAP (GALIUM APARINE [12]; 0.125 kg/ha)
7.0: Herbicide rating (0-9) CHEAL (CHENOPODIUM ALBUM, L. [4]; 0.500 kg/ha)
4.5: Herbicide rating (0-9) TRZAWO ([8]; 0.250 kg/ha) | Herbicide rating (0-9) GLXMAW ([10]; 0.250 kg/ha) | Herbicide rating (0-9) ZEAMX (ZEA MAYS L.; 0.250 kg/ha) | Herbicide rating (0-9) ZEAMX (ZEA MAYS L.; 0.500 kg/ha)
1.0: Herbicide rating (0-9) ABUTH ([7]; 0.125 kg/ha) | Herbicide rating (0-9) AMBEL ([13]; 0.125 kg/ha)
3.5: Herbicide rating (0-9) GLXMAW ([10]; 0.125 kg/ha)
2.0: Herbicide rating (0-9) CASOB (CASSIA OBTUSIFOLIA, L. [1]; 0.125 kg/ha) | Herbicide rating (0-9) CASOB (CASSIA OBTUSIFOLIA, L. [1]; 0.250 kg/ha) | Herbicide rating (0-9) ECHCG ([5]; 0.500 kg/ha) | Herbicide rating (0-9) CHEAL (CHENOPODIUM ALBUM, L. [6]; 0.250 kg/ha) | Herbicide rating (0-9) CHEAL (CHENOPODIUM ALBUM, L. [6]; 0.500 kg/ha) | Herbicide rating (0-9) ABUTH ([7]; 0.500 kg/ha) | Herbicide rating (0-9) GALAP (GALIUM APARINE [12]; 0.250 kg/ha) | Herbicide rating (0-9) GALAP (GALIUM APARINE [12]; 0.500 kg/ha) | Herbicide rating (0-9) IPOSS (IPOMOEA SPP.; 0.125 kg/ha)
3.0: Herbicide rating (0-9) CASOB (CASSIA OBTUSIFOLIA, L. [1]; 0.500 kg/ha) | Herbicide rating (0-9) ORYSAT ([3]; 0.125 kg/ha) | Herbicide rating (0-9) CASOB (CASSIA OBTUSIFOLIA, L. [9]; 0.125 kg/ha) | Herbicide rating (0-9) GALAP (GALIUM APARINE [11]; 0.500 kg/ha) | Herbicide rating (0-9) AMBEL ([13]; 0.250 kg/ha) | Herbicide rating (0-9) AMBEL ([13]; 0.500 kg/ha)
5.0: Herbicide rating (0-9) TRZAWO ([8]; 0.500 kg/ha) | Herbicide rating (0-9) IPOSS (IPOMOEA SPP.; 0.500 kg/ha)

CC(C)OC(=O)Cn1c(=O)n(C)c(=O)n(-c2cc(N3C(=O)c4cccc(F)c4C3=O)c(F)cc2Cl)c1=O [Compound 11, Isopropyl 3-[2-chloro-4-fluoro-5-(3-fluoro-phthalimido)phenyl]tetrahydro-5-methyl-2,4,6-trioxo-s-triazine-1(2H)-acetate]
2.5: Herbicide rating (0-9) ZEAMX (ZEA MAYS L.; 0.125 kg/ha) | Herbicide rating (0-9) ZEAMX (ZEA MAYS L.; 0.250 kg/ha)
3.0: Herbicide rating (0-9) ABUTH ([14]; 0.250 kg/ha) | Herbicide rating (0-9) ABUTH ([14]; 0.500 kg/ha) | Herbicide rating (0-9) SETVI ([15]; 0.250 kg/ha) | Herbicide rating (0-9) SETVI ([15]; 0.500 kg/ha) | Herbicide rating (0-9) GALAP (GALIUM APARINE [12]; 0.500 kg/ha) | Herbicide rating (0-9) ZEAMX (ZEA MAYS L.; 0.500 kg/ha) | Herbicide rating (0-9) IPOSS (IPOMOEA SPP.; 0.125 kg/ha)
7.0: Herbicide rating (0-9) ABUTH ([7]; 0.500 kg/ha)
1.5: Herbicide rating (0-9) ORYSAT ([3]; 0.125 kg/ha)
0.5: Herbicide rating (0-9) TRZAWO ([8]; 0.125 kg/ha) | Herbicide rating (0-9) TRZAWO ([8]; 0.250 kg/ha)
5.5: Herbicide rating (0-9) GLXMAW ([10]; 0.500 kg/ha)
4.0: Herbicide rating (0-9) CASOB (CASSIA OBTUSIFOLIA, L. [1]; 0.125 kg/ha) | Herbicide rating (0-9) CASOB (CASSIA OBTUSIFOLIA, L. [1]; 0.250 kg/ha) | Herbicide rating (0-9) GLXMAW ([10]; 0.125 kg/ha) | Herbicide rating (0-9) IPOSS (IPOMOEA SPP.; 0.250 kg/ha)
2.0: Herbicide rating (0-9) ORYSAT ([3]; 0.250 kg/ha) | Herbicide rating (0-9) ORYSAT ([3]; 0.500 kg/ha) | Herbicide rating (0-9) SETVI ([15]; 0.125 kg/ha) | Herbicide rating (0-9) GALAP (GALIUM APARINE [12]; 0.250 kg/ha)
1.0: Herbicide rating (0-9) TRZAWO ([8]; 0.500 kg/ha) | Herbicide rating (0-9) GALAP (GALIUM APARINE [12]; 0.125 kg/ha)
6.0: Herbicide rating (0-9) CASOB (CASSIA OBTUSIFOLIA, L. [1]; 0.500 kg/ha) | Herbicide rating (0-9) ABUTH ([7]; 0.250 kg/ha) | Herbicide rating (0-9) IPOSS (IPOMOEA SPP.; 0.500 kg/ha) | Herbicide rating (0-9) AMBEL ([13]; 0.250 kg/ha)
4.5: Herbicide rating (0-9) GLXMAW ([10]; 0.250 kg/ha)
0.0: Herbicide rating (0-9) ABUTH ([14]; 0.125 kg/ha)
9.0: Herbicide rating (0-9) ABUTH ([7]; 0.125 kg/ha) | Herbicide rating (0-9) AMBEL ([13]; 0.125 kg/ha) | Herbicide rating (0-9) AMBEL ([13]; 0.500 kg/ha)
